The whole screen tested about 43,000 compounds, of which about 200 (0.47%) were called active. Inconclusive results (about 12%) are left out. Calls follow the shape of the dose curve; as a rule, active = well fitted cell-killing curve with a large enough effect; inconclusive = small, poorly fitted or top-dose-only effect, or effect the other way; inactive = flat fitted curve, though single readings scatter. This is one part of the list.
Assay: Cell viability qHTS assay in S16 Pmp22-F2sN cells; also: nearly all actives have a fitted effect of over 65% in size
Conditions: S16 Pmp22-F2sN Schwann cells viability, CellTiter-Glo, 24 h; series mostly up to 57.5 µM; activity change, negative = cytotoxicity: at the top concentration
Outline: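 Viability was measured by CellTiter-Glo luminescence (15 min, room temperature). This followed 24 h at 37 °C of compound exposure (23 nL pin transfer) in S16 Pmp22-F2sN Schwann cells, 500-1,000 per well.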
% is scaled to controls: 0 for no effect and ±100 for the full control effect.

Compound | activity change, negative = cytotoxicity
CCc1ccccc1NC(=O)CCS(=O)(=O)c1cccc2nonc12 | inactive: -5.93%
COc1ccc(N2CCN(C(=O)c3cc(S(=O)(=O)N4CCC(C)CC4)cn3C)CC2)cc1 | inactive: 0.364%
CCN1CCN(CCCNC(=O)c2ccc3nc(Cc4ccccc4)oc3c2)CC1 | inactive: -15.7%
CCOc1ccccc1N(CC)C(=O)c1noc2c1COc1ccc(C)cc1-2 | inactive: 2.47%
CCn1cc(C(=O)NCCc2ccc(Cl)cc2)c(=O)c2cc(S(=O)(=O)N3CCC(C)CC3)ccc21 | inactive: 11%
O=C(NC1CCCCC1)c1ccc2c(c1)N(Cc1ccc(Cl)cc1)C(=O)c1ccccc1S2=O (stereo not given) | inactive: 15.4%
O=C(c1ccc(F)cc1)n1nc(-c2ccccc2)nc1NCc1ccco1 | inactive: -9.51%
Cc1cccc(NC(=O)CCNS(=O)(=O)c2cccc3nsnc23)c1C | inactive: 16%
COc1ccc(N(CC(=O)N2CCN(c3ccccc3F)CC2)S(=O)(=O)c2c(C)n[nH]c2C)cc1 | inactive: -20.7%
CCN(C(=O)C1CCN(c2ncnc3c2nc2n3CCCCC2)CC1)c1cccc(Cl)c1 | inactive: -3.16%
COc1ccc(-n2ccnc(NCc3ccc(C)cc3)c2=O)cc1OC | inactive: 2.35%
O=C(NCC(c1ccc2c(c1)OCO2)N1CCOCC1)c1c(F)cccc1F (stereo not given) | inactive: -2.18%
CC(C)(Oc1ccc(Cl)cc1)C(=O)Nc1nc2ccc(S(C)(=O)=O)cc2s1 | inactive: -2.21%
CN(C)c1ccc(C(CNC(=O)c2c(F)cccc2Cl)N2CCOCC2)cc1 (stereo not given) | inactive: 13.7%
Cc1ccc(NC(=O)CN2C(=O)C3(SCC(=O)N3c3ccc(F)c(F)c3)c3ccccc32)c(C)c1 (stereo not given) | inactive: -22.3%
CCOCCCNC(=O)C(c1ccc(Cl)cc1)N(Cc1cccs1)C(=O)c1ccc(NC(C)=O)cc1 (stereo not given) | inactive: -15.8%
CCC(=O)N1CCc2cc(Br)cc(S(=O)(=O)CCC(=O)N(CC)Cc3ccccc3)c21 | inactive: 4.97%
COc1cc(OC)cc(C(=O)Nc2ccc3oc(-c4cccc5c(Br)cccc45)nc3c2)c1 | inactive: 3.87%
CN1C(=O)C2(SCC(=O)N2c2ccc(F)cc2)c2ccccc21 (stereo not given) | inactive: -2.34%
CCOc1ccc(OCC)c(NS(=O)(=O)c2cc(-c3onc(C)c3C)ccc2OC)c1 | inactive: -2.54%
CC(=O)N1CCc2cc(CNS(=O)(=O)c3ccc(Cl)s3)ccc21 | inactive: -24.2%
COc1ccc(-n2c(=O)c3c4c(sc3n3c(SCCC(C)C)nnc23)COC(C(C)C)C4)cc1 (stereo not given) | inactive: 1.03%
CN(Cc1ccco1)S(=O)(=O)c1nnc(NC(=O)c2cccc(Cl)c2)s1 | inactive: -18.7%
CCCN(CCC)C(=O)c1cc2c(=O)n3cccc(C)c3nc2n1C | inactive: 11.9%

Compound | activity change, negative = cytotoxicity
Cc1ccc2cccc(NC(=O)c3ccc(-c4cccc(Cl)c4)o3)c2n1 | inactive: 3.72%
Cc1ccc(NC(=O)Cn2c(=O)oc3cc(S(=O)(=O)N4CCCCCC4)ccc32)cc1Cl | inactive: -4.82%
CCOc1ccc(Nc2c(S(=O)(=O)c3ccccc3)cnc3ccccc23)cc1 | inactive: 0.931%
CC(C)C(NS(=O)(=O)c1ccc2c(c1)oc(=O)n2C)C(=O)NCCc1ccc(Cl)cc1 (stereo not given) | inactive: 1.41%
COCCNC(=O)CSc1nc(-c2ccccc2C)nc2c1c(=O)n(C)c(=O)n2C | inactive: 3.06%
NS(=O)(=O)c1ccc2nc(NC(=O)COc3ccccc3)sc2c1 | inactive: 0.119%
Cc1ccc(-c2nnc(Nc3ccc(S(N)(=O)=O)cc3)c3ccccc23)cc1S(=O)(=O)N1CCCCC1 | inactive: -15.4%
COC(=O)C1CCN(S(=O)(=O)c2cc3c4c(c2)CC(=O)N4CCC3)CC1 | inactive: -5.39%
O=C(Nc1cccc(F)c1)c1ccc(-c2ccccc2)s1 | inactive: 12.5%
CCCN(CCC)CCCNC(=O)Cn1cnc2sc(C)c(S(=O)(=O)N3CCC(C)CC3)c2c1=O | inactive: 1.9%
CCOCCCn1c(=N)c(C(=O)NCC2CCCO2)cc2c(=O)n3cccc(C)c3nc21 (stereo not given) | inactive: -6.67%
Cc1ccc(C)c(NC(=O)Cn2c(=O)n(Cc3ccccc3)c(=O)c3oc4ccccc4c32)c1 | inactive: 0.279%
Cc1ccc(C)c(N2CCN(Cc3csc(C)c3)CC2)c1 | inactive: -3.04%
COC(=O)C1=C(c2ccccc2)c2ccccc2S(=O)(=O)N1CC(=O)Nc1ccccc1Cl | inactive: 5.96%
Cc1ccc(CN2C(=O)c3ccccc3Sc3ccc(C(=O)OCc4ccco4)cc32)cc1 | inactive: 7.2%
Cc1ccc(S(=O)(=O)c2cn(Cc3ccccc3Cl)c3ccc(F)cc3c2=O)cc1 | inactive: -8.77%
COc1ccc2c(c1)NC(c1cccnc1)=NC(c1ccc(F)cc1)=N2 | inactive: -3.58%
CCOC(=O)c1c(C)oc2nc(C)nc(NCc3ccccc3OC)c12 | inactive: -26.4%
COc1ccccc1NC(=O)Cn1c(=O)n(CCCCCC(=O)NCc2ccccc2)c(=O)c2sccc21 | inactive: 12.9%
Cc1ccccc1Nc1c(-c2cccs2)nc2cccc(C)n12 | inactive: -0.796%
CC1Cc2cc(S(=O)(=O)N(Cc3ccccc3)C(C)C)ccc2N1C(=O)C1CCC1 (stereo not given) | inactive: -23.9%
CCOc1ccc(/C=C/c2nc(C#N)c(NCCc3ccccc3)o2)cc1 | inactive: -7.49%
O=C(CSc1nc2c([nH]c3ccccc32)c(=O)n1-c1ccc(Cl)cc1)NCC1CCCO1 (stereo not given) | inactive: 12%
Cc1cc(C(=O)Nc2c(C)nc3ccccn3c2=O)ccc1[N+](=O)[O-] | inactive: 0.837%

Compound | activity change, negative = cytotoxicity
Cc1ccc(-n2c(SCC(N)=O)nc3c(oc4ccccc43)c2=O)cc1C | inactive: -3.91%
COc1cccc(C(=O)Nc2ccccc2-c2nnc(-c3cccc(OC)c3)o2)c1 | inactive: -23.6%
O=C(Cn1c(=O)oc2cc(S(=O)(=O)NCc3ccccc3)ccc21)NCc1ccc(Cl)cc1 | inactive: -25%
CC(=O)Nc1ccc(S(=O)(=O)NC2(C(F)(F)F)NC(=O)N(CCc3ccc(F)cc3)C2=O)cc1 (stereo not given) | inactive: 7.04%
COc1ccc(CNC(=O)CCc2nc(-c3ccc(C)cc3)no2)c(OC)c1 | inactive: -20.1%
O=C(Nc1ccc2nc(SCC(=O)N3CCc4ccccc43)sc2c1)c1ccccc1F | inactive: 20.4%
Cn1cc(S(=O)(=O)c2ccccc2)c(=O)c2cc(F)c(N3CCCCCC3)cc21 | inactive: -19.8%
Cc1cc(C)cc(-n2c(SCC(=O)Nc3ccc4c(c3)OCCO4)nc3c([nH]c4ccccc43)c2=O)c1 | inactive: 20.1%
COc1ccc(C)cc1-n1cnc2cc(C(=O)NC3CCCC3)ccc21 | inactive: 4.99%
COc1cc(C(=O)Nc2nonc2-c2ccc(C)c(C)c2)cc(OC)c1OC | inactive: 13%
Cc1ccc(NC(=O)c2ccc(NC(=O)N3CCSc4ncccc43)cc2)c(C)c1 | inactive: 14.7%
O=C(CSc1nc(-c2ccc(F)cc2)cc(C(F)(F)F)n1)NCCc1ccccc1 | inactive: 17.7%
COc1cccc(N2CCN(S(=O)(=O)c3ccc(-c4ccno4)cc3OC)CC2)c1 | inactive: -24.5%
O=C(CSc1cn(CC(=O)N2CCCCC2)c2ccccc12)Nc1ccc(C(F)(F)F)cc1 | inactive: 5.13%
COc1ccc(OC)c(C2NC(=O)NC(C)=C2C(=O)Nc2ccc(F)cc2)c1 (stereo not given) | inactive: -1.75%
Cc1ccc(C(c2sc3nc(-c4ccco4)nn3c2O)N2CCC3(CC2)OCCO3)cc1 (stereo not given) | inactive: 17.4%
CCc1cccc(Nc2ncnc3onc(-c4ccc(F)cc4)c23)c1 | inactive: -4.77%
COC(=O)c1c(C)nn(-c2ccc(F)cc2)c1-n1cccc1 | inactive: 5.83%
Cc1ccc(C(=O)NCc2ccc(F)cc2)cc1NC(=O)c1nsc2ccccc12 | inactive: -3.72%
CCN(CC)CCNC(=O)c1sc2ncccc2c1-n1cccc1 | inactive: -2.48%
COc1ccc(NC(=O)c2ccco2)cc1NC(=O)COc1ccc(Cl)cc1C | inactive: -4.69%
Cc1ccc(NC(=O)Cn2c(=O)n(Cc3nc(-c4ccccc4)no3)c(=O)c3cc4c(cc32)OCO4)c(C)c1 | inactive: 5.24%
COc1cccc(Nc2nc3ccc(C)cc3nc2-n2nc(C)cc2C)c1 | inactive: 5.22%
COc1ccc(Nc2c(-c3ccccn3)nc3ccc(Cl)cn23)cc1 | inactive: -12.7%

Compound | activity change, negative = cytotoxicity
Cc1ccc(NC(=O)C2=CC(c3ccc4c(c3)OCO4)=NS(=O)(=O)N2C)cc1 | inactive: 10.5%
CCc1ccc(-n2c(=O)c3cccnc3n2CC(=O)NCc2ccc(C)cc2)cc1 | inactive: 5.28%
COc1ccc(CCNC(=O)CSc2n[nH]c(-c3ccccc3Cl)n2)cc1OC | inactive: 12%
COc1ccc(Cl)cc1NC(=O)CSC1=Nc2ccccc2C2=NC(CC(=O)NCc3cccs3)C(=O)N12 (stereo not given) | inactive: -9.02%
O=C(NCc1ccccc1)c1cnc(N2CCCCC2)c2ccccc12 | inactive: 12.2%
CCOC(=O)c1cc2c(=O)n3ccccc3nc2n(Cc2ccco2)c1=NC(=O)c1ccc(OCC)cc1 | inactive: -3.21%
Cn1c(=O)n(CCCc2ccccc2)c(=O)c2c1nc1n2CCN1c1ccc(F)cc1 | inactive: -14.7%
Cc1nn(C(=O)c2ccc(Br)cc2)c(C)c1Sc1ccccc1 | inactive: -8.08%
COc1cc(OC)c(N(C)C(=O)c2sc3nc4n(c(=O)c3c2C)CCCC4)cc1Cl | inactive: -1.92%
CCCCOC(=O)c1ccc(NC(=O)c2cnc3ccc(C)cn3c2=O)cc1 | inactive: -5%
CCn1c(=O)cc(OCC(=O)N2CCN(c3ccc(F)cc3)CC2)c2ccccc21 | inactive: 9.4%
CCN(c1cccc(C)c1)c1ncnc2c1cnn2-c1cccc(Cl)c1 | inactive: 21.6%
CC(C)NC(=O)CCN1C(=O)c2ccccc2Sc2ncccc21 | inactive: 10.4%
O=C(NC1CC(=O)N(c2ccc(F)cc2)C1)C1CC1 (stereo not given) | inactive: 0.106%
COc1ccc2oc(=O)c(-c3nc(-c4cccs4)no3)cc2c1 | inactive: 8.55%
Cc1ccc(NC(=O)Cn2nnc(C(=O)NCc3ccc4c(c3)OCO4)c2N)cc1Cl | inactive: 1.44%
CCc1ccc(NC(=O)Cn2cc(S(=O)(=O)N3CCCC3)c(S(=O)(=O)N3CCCC3)c2)cc1 | inactive: 2.5%
CSc1nc2sc3c(c2c(=O)n1-c1ccccc1)CCC(C(C)(C)C)C3 (stereo not given) | inactive: 4.21%
COc1ccccc1-c1noc(-c2ccc(NC(C)C)c([N+](=O)[O-])c2)n1 | inactive: -13.2%
COc1ccc(Cn2c(=O)[nH]c3cc(C(=O)N4CCN(c5cc(Cl)ccc5C)CC4)ccc3c2=O)cc1 | inactive: 4.57%
COc1ccc2[nH]cc(S(=O)(=O)c3ccc(C)c(C)c3)c(=O)c2c1 | inactive: -0.395%
O=C(CCCCn1c(=O)c2ccccc2n(CC(=O)Nc2cccc(F)c2)c1=O)NCCc1ccccc1 | inactive: -0.607%
COc1ccc(-c2nn(-c3cccc(F)c3)c3c2cnc2cc(OC)c(OC)cc23)cc1 | inactive: -1.66%
